Reference: the supplement of paper PMC12217912
Some of the results follow. Sequences were assembled here from the parent chain. Values near 0.05 are background.

B1: TEV protease; numbered along this chain (parent)
chain: MGESLFKGPRDYNPISSSICHLTNESDGHTTSLYGIGFGPFIITNKHLFRRNNGTLVVQSLHGVFKVKDTTTLQQHLVDGRDMIIIRMPKDFPPFPQKLKFREPQREERICLVTTNFQTKSMSSMVSDTSCTFPSGDGIFWKHWIQTKDGQCGSPLVSTRDGFIVGIHSASNFTNTNNYFTSVPKNFMELLTNQEAQQWVSGWRLNADSVLWGGHKVFMVKPEEPFQPVKEATQL

Variants of: B1
Assay: raw area under fraction-flipped curve 0-4 h after induction (AUC4h, not background-subtracted), DNA-recorder readout of cleavage of the substrate (dimensionless); higher = more cleavage of the substrate by the protease variant
Settings: temperature: 34 °C; time window: 0-4 h after rhamnose induction
Description: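 In vivo DNA recorder in E. coli TOP10(DE3) ΔrhaA at 34 °C. Each TEVp single-site mutant (parent TEVp 0) is paired with a single-site variant of the 7-mer TEVs (canonical ENLYFQ|S). The substrate sits between flexible linkers in a Bxb1-sfGFP-TEVs-SsrA fusion, so cleavage stabilises Bxb1 and speeds flipping of a recombination array, read by NGS. The value is the raw area under the fraction-flipped curve over 0-4 h after rhamnose induction (AUC4h), with ≥20 reads per time point. It is not background-subtracted; inactive controls average about 0.047.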
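Note: Bxb1 expression induced with 0.2% (w/v) L-rhamnose at OD600 near 0.5, cultures sampled hourly, flipped fraction per protease–substrate barcode pair counted by paired-end Illumina sequencing.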

Row | Variant | area with substrate ENLAFQS | area with substrate ENLCFQS | area with substrate ENLDFQS | area with substrate ENLEFQS | area with substrate ENLFFQS | area with substrate ENLGFQS | area with substrate ENLHFQS | area with substrate ENLIFQS | area with substrate ENLKFQS | area with substrate ENLLFQS | area with substrate ENLNFQS | area with substrate ENLPFQS | area with substrate ENLRFQS | area with substrate ENLSFQS | area with substrate ENLTFQS | area with substrate ENLWFQS | area with substrate ENLMFQS | area with substrate ENLQFQS | area with substrate ENLVFQS
1 | MGESLFKGPRDYNPISSSICHLTNESDGHTTSLYGIGFGPFIITHKHLFRRNNGTLVVQSLHGVFKVKDTTTLQQHLVDGRDMIIIRMPKDFPPFPQKLKFREPQREERICLVTTNFQTKSMSSMVSDTSCTFPSGDGIFWKHWIQTKDGQCGSPLVSTRDGFIVGIHSASNFTNTNNYFTSVPKNFMELLTNQEAQQWVSGWRLNADSVLWGGHKVFMVKPEEPFQPVKEATQL [N45H] | 0.0664 | 0.0554 | 0.0637 | 0.0614 | 0.0691 | 0.0465 | 0.0607 | 0.0744 | 0.0651 | 0.06 | 0.0619 | 0.0447 | 0.0493 | 0.0605 | 0.0707 | 0.0431 |  |  | 
2 | MGESLFKGPRDYNPISSSICHLTNESDGHTTSLYGIGFGPFIITIKHLFRRNNGTLVVQSLHGVFKVKDTTTLQQHLVDGRDMIIIRMPKDFPPFPQKLKFREPQREERICLVTTNFQTKSMSSMVSDTSCTFPSGDGIFWKHWIQTKDGQCGSPLVSTRDGFIVGIHSASNFTNTNNYFTSVPKNFMELLTNQEAQQWVSGWRLNADSVLWGGHKVFMVKPEEPFQPVKEATQL [N45I] | 0.0491 | 0.0679 | 0.0619 |  | 0.0434 | 0.0478 | 0.0574 |  | 0.0557 |  | 0.0456 | 0.0524 | 0.0771 | 0.0525 |  |  | 0.0673 | 0.0539 | 
3 | MGESLFKGPRDYNPISSSICHLTNESDGHTTSLYGVGFGPFIITNKHLFRRNNGTLVVQSLHGVFKVKDTTTLQQHLVDGRDMIIIRMPKDFPPFPQKLKFREPQREERICLVTTNFQTKSMSSMVSDTSCTFPSGDGIFWKHWIQTKDGQCGSPLVSTRDGFIVGIHSASNFTNTNNYFTSVPKNFMELLTNQEAQQWVSGWRLNADSVLWGGHKVFMVKPEEPFQPVKEATQL [I36V] | 0.0604 | 0.0849 | 0.0578 | 0.0513 | 0.0867 | 0.0806 | 0.0731 |  | 0.0634 | 0.0748 | 0.0573 | 0.0717 | 0.0707 | 0.0634 |  |  | 0.081 | 0.0637 | 0.0772
4 | MGESLFKGPRDYNPISSSICHLTNESDGHTTSLYGIGFWPFIITNKHLFRRNNGTLVVQSLHGVFKVKDTTTLQQHLVDGRDMIIIRMPKDFPPFPQKLKFREPQREERICLVTTNFQTKSMSSMVSDTSCTFPSGDGIFWKHWIQTKDGQCGSPLVSTRDGFIVGIHSASNFTNTNNYFTSVPKNFMELLTNQEAQQWVSGWRLNADSVLWGGHKVFMVKPEEPFQPVKEATQL [G39W] | 0.0481 | 0.0443 | 0.0498 | 0.0488 | 0.0478 | 0.0349 | 0.0449 | 0.0517 | 0.0507 |  | 0.0407 | 0.053 | 0.0455 | 0.0349 | 0.0534 | 0.044 | 0.0476 | 0.0428 | 0.0484
5 | MGESLFKGPRDYNPISSSICHLTNESDGHTTSLYGIGFQPFIITNKHLFRRNNGTLVVQSLHGVFKVKDTTTLQQHLVDGRDMIIIRMPKDFPPFPQKLKFREPQREERICLVTTNFQTKSMSSMVSDTSCTFPSGDGIFWKHWIQTKDGQCGSPLVSTRDGFIVGIHSASNFTNTNNYFTSVPKNFMELLTNQEAQQWVSGWRLNADSVLWGGHKVFMVKPEEPFQPVKEATQL [G39Q] | 0.0397 | 0.0278 | 0.044 | 0.0531 | 0.0541 |  | 0.0444 | 0.0416 | 0.0412 | 0.0397 | 0.0399 | 0.0366 |  | 0.0436 |  | 0.0474 | 0.0288 | 0.0353 | 
6 | MGESLFKGPRDYNPISSSICHLTNESDGHTTSLYGIGFGPFIIDNKHLFRRNNGTLVVQSLHGVFKVKDTTTLQQHLVDGRDMIIIRMPKDFPPFPQKLKFREPQREERICLVTTNFQTKSMSSMVSDTSCTFPSGDGIFWKHWIQTKDGQCGSPLVSTRDGFIVGIHSASNFTNTNNYFTSVPKNFMELLTNQEAQQWVSGWRLNADSVLWGGHKVFMVKPEEPFQPVKEATQL [T44D] | 0.0422 | 0.0575 | 0.0492 | 0.0327 | 0.043 | 0.0505 | 0.0449 | 0.0507 | 0.0392 |  | 0.0589 |  | 0.0427 |  |  |  | 0.0208 |  | 
7 | MGESLFKGPRDYNPISSSICHLTNESDGHTTSLYGIGFGPFIIKNKHLFRRNNGTLVVQSLHGVFKVKDTTTLQQHLVDGRDMIIIRMPKDFPPFPQKLKFREPQREERICLVTTNFQTKSMSSMVSDTSCTFPSGDGIFWKHWIQTKDGQCGSPLVSTRDGFIVGIHSASNFTNTNNYFTSVPKNFMELLTNQEAQQWVSGWRLNADSVLWGGHKVFMVKPEEPFQPVKEATQL [T44K] | 0.0501 |  | 0.0556 | 0.056 |  |  | 0.0529 | 0.0667 | 0.0523 |  | 0.0517 | 0.0568 |  | 0.0373 |  | 0.0483 |  | 0.0615 | 0.0448
8 | MGESLFKGPRDYNPISSSICHLTNESDGHTTSLYGIGFGPFYITNKHLFRRNNGTLVVQSLHGVFKVKDTTTLQQHLVDGRDMIIIRMPKDFPPFPQKLKFREPQREERICLVTTNFQTKSMSSMVSDTSCTFPSGDGIFWKHWIQTKDGQCGSPLVSTRDGFIVGIHSASNFTNTNNYFTSVPKNFMELLTNQEAQQWVSGWRLNADSVLWGGHKVFMVKPEEPFQPVKEATQL [I42Y] | 0.05 | 0.0471 |  | 0.0433 | 0.0549 | 0.0394 | 0.0395 | 0.0782 | 0.0459 | 0.0447 | 0.0562 | 0.0589 |  | 0.0423 | 0.0513 | 0.0234 |  | 0.0535 | 0.0311
9 | MGESLFKGPRDYNPISSSICHLTNESDGHTTSLYGIGFGPFCITNKHLFRRNNGTLVVQSLHGVFKVKDTTTLQQHLVDGRDMIIIRMPKDFPPFPQKLKFREPQREERICLVTTNFQTKSMSSMVSDTSCTFPSGDGIFWKHWIQTKDGQCGSPLVSTRDGFIVGIHSASNFTNTNNYFTSVPKNFMELLTNQEAQQWVSGWRLNADSVLWGGHKVFMVKPEEPFQPVKEATQL [I42C] | 0.0603 | 0.0638 | 0.0591 | 0.0615 | 0.0755 | 0.0442 | 0.0704 | 0.0866 | 0.0738 | 0.0617 | 0.0568 | 0.0524 | 0.0635 |  |  | 0.0577 | 0.0583 |  | 0.099
